Measurements from the supplement of paper PMC10126150.
Values marked as one replicate rest on one cluster of the flow cell; about a third of the high ones do not repeat.
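Note: ATP exposure 15 min at 22 °C before imaging.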

Each sequence was assayed on ATP (assay: switch fluorescence ratio, 500 uM ATP over buffer (Cy3 cluster intensity, sum of 5 cycles each) (fold (ratio)); higher = stronger signal-on switching upon ATP binding; sequences stand for … in TCGTCGGCAGCGTCAGATGTGTATAAGAGACAGTTTTTTTTTTTTTTTTTTTTTTTTT…TC). Settings: aptamer strand: ATP DNA aptamer (quencher-CACCTGGGGGAGTATTGCGGAGGAAGG + anchor), 100 nM annealed; ATP concentration: 500 uM; one replicate.
In short: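 Cy3-labelled switching-strand clusters on a modified Illumina MiSeq flow-cell were annealed to 100 nM quencher-labelled ATP aptamer, imaged in selection buffer, then imaged after 15 min with 500 uM ATP at 22 °C. Five buffer/ATP cycles ran, with NaOH stripping and re-annealing between them. The fluorescence ratio is summed target-cycle over summed buffer-cycle Cy3 intensity per cluster, averaged per switch-domain sequence. Clusters outside 100-1000 RFU were excluded.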
GGTAAATGGT was tested, and the switch fluorescence ratio was 0.938.
In the case of TACATATGGG, the switch fluorescence ratio is reported as 1.01.
CGTGAGTTAA was tested, and the switch fluorescence ratio was 1.01.
For ATCCTTTAGA, the switch fluorescence ratio was 1.01.
Work on TTATACCTAG yielded a switch fluorescence ratio of 1.03.
With CGTGTACTCA the switch fluorescence ratio was 1.22.
CGTAGGTATT showed a switch fluorescence ratio of 0.99.
For GACGCGAGGG, the switch fluorescence ratio was 0.965.
For TAAAGGTCCA, the switch fluorescence ratio was 1.01.
Work on CGAAATGCGA yielded a switch fluorescence ratio of 1.92.
Work on CACTATATCA yielded a switch fluorescence ratio of 1.05.
In the case of TCCGGACAAA, the switch fluorescence ratio is reported as 1.05.
Work on GCTTTGGGCG yielded a switch fluorescence ratio of 1.02.
Sequence GGAATGTGTG has a switch fluorescence ratio of 0.985.
TTTCGTGGTA gave a switch fluorescence ratio of 0.973.
With ATTATCCTGA the switch fluorescence ratio was 1.02.
AAGTCGAAA was tested, and the switch fluorescence ratio was 1.01.
For TGCCTAGTTG, the switch fluorescence ratio was 1.03.
Work on CTCATTGCGG yielded a switch fluorescence ratio of 1.
With GTGGCCTTGT the switch fluorescence ratio was 0.98.
In the case of TGTAATAGAG, the switch fluorescence ratio is reported as 1.02.
CGCAACTGTT showed a switch fluorescence ratio of 1.22.
Sequence TTTGTCTTGC has a switch fluorescence ratio of 1.14.
Sequence AATTTATCTT has a switch fluorescence ratio of 1.06.
TAGGATGTAG gave a switch fluorescence ratio of 1.03.
ATACTGCTGA showed a switch fluorescence ratio of 1.
AGACTCGG was tested, and the switch fluorescence ratio was 0.956.
TAGAGCGGAT was tested, and the switch fluorescence ratio was 1.
CATTCAGTTA gave a switch fluorescence ratio of 0.998.
Sequence AGCATGTGAG has a switch fluorescence ratio of 0.961.
ATGCTGCTCT gave a switch fluorescence ratio of 1.12.
With GTTACTACTT the switch fluorescence ratio was 0.994.
Work on GCATGCAGAC yielded a switch fluorescence ratio of 1.06.
TTCATACTGT showed a switch fluorescence ratio of 1.
With GCTTTACGGC the switch fluorescence ratio was 1.01.
With TCGGTCATT the switch fluorescence ratio was 0.951.
With CTTGATCCGT the switch fluorescence ratio was 1.17.
For GAGGTAGTT, the switch fluorescence ratio was 0.992.
For TACAAGTGGC, the switch fluorescence ratio was 1.04.
AATCGGACGG showed a switch fluorescence ratio of 1.04.
With GGATTACAGC the switch fluorescence ratio was 1.04.
Work on GAAGCAGTT yielded a switch fluorescence ratio of 1.04.
CACTCGAGGA gave a switch fluorescence ratio of 0.99.
TGGTTTTTCT gave a switch fluorescence ratio of 0.974.
With AAGGAGATTT the switch fluorescence ratio was 0.978.
With ATATGGCAAC the switch fluorescence ratio was 0.974.
In the case of GGGGAATCAT, the switch fluorescence ratio is reported as 0.921.
For GAAACGGCTG, the switch fluorescence ratio was 1.03.
With TAGGCCTCAG the switch fluorescence ratio was 0.998.
ACAGTTAAAA gave a switch fluorescence ratio of 0.981.
Work on GGAAGGCCTT yielded a switch fluorescence ratio of 0.95.
In the case of CGAATCTTTC, the switch fluorescence ratio is reported as 1.26.
For GTGGATGTTT, the switch fluorescence ratio was 0.969.
With GCTATGGCGT the switch fluorescence ratio was 1.02.
Work on ACGGGGGGCC yielded a switch fluorescence ratio of 0.966.
Sequence TCCTAGGAGA has a switch fluorescence ratio of 1.02.
With AAAACCGTCA the switch fluorescence ratio was 1.2.
GGCCCCGCCC showed a switch fluorescence ratio of 0.991.
TTAGCGGGAG showed a switch fluorescence ratio of 0.993.
For GTCTTGATGG, the switch fluorescence ratio was 0.989.
AGGATGGCGT gave a switch fluorescence ratio of 1.04.
Work on GATCCGCTTA yielded a switch fluorescence ratio of 3.42.
For TAGAGAGTGG, the switch fluorescence ratio was 0.978.
Sequence AGTATTAGA has a switch fluorescence ratio of 1.05.
Sequence GCAGGTTCCC has a switch fluorescence ratio of 1.07.
Work on CACTCTTATG yielded a switch fluorescence ratio of 0.988.
TAGAAGTTGA was tested, and the switch fluorescence ratio was 1.03.
In the case of CCAGCGTATT, the switch fluorescence ratio is reported as 1.15.
Sequence GGACCATTGA has a switch fluorescence ratio of 0.987.
For AGTCATTCGA, the switch fluorescence ratio was 1.05.
ACATAGTGTT was tested, and the switch fluorescence ratio was 1.06.
Work on CTACGTTGAA yielded a switch fluorescence ratio of 0.998.
AAACGGCGAG was tested, and the switch fluorescence ratio was 1.03.
ATGTGAACCG gave a switch fluorescence ratio of 1.07.
CGCAGTTTCT gave a switch fluorescence ratio of 1.1.
AGATGTCTCC was tested, and the switch fluorescence ratio was 1.03.
TCCGAATAGT was tested, and the switch fluorescence ratio was 1.29.
In the case of GGCGGACGCA, the switch fluorescence ratio is reported as 1.02.
TTTTATTA showed a switch fluorescence ratio of 0.995.
AAGGTGAGCA was tested, and the switch fluorescence ratio was 1.01.
Sequence AACCTAACGG has a switch fluorescence ratio of 1.28.
With TATAGCTGGT the switch fluorescence ratio was 1.01.
In the case of TATTTCCGAG, the switch fluorescence ratio is reported as 1.16.
TCTATGGATT was tested, and the switch fluorescence ratio was 0.99.
Sequence CTCATCGCGC has a switch fluorescence ratio of 1.36.
Sequence TTGGACGAG has a switch fluorescence ratio of 0.942.
Sequence ATACGGGCAT has a switch fluorescence ratio of 0.985.
CAGACAATAG gave a switch fluorescence ratio of 1.1.
TTATACTGCC was tested, and the switch fluorescence ratio was 1.16.
Sequence TGTCGGATGA has a switch fluorescence ratio of 1.05.
TCTCTCGTAA gave a switch fluorescence ratio of 2.48.
TCGCCAGGGA was tested, and the switch fluorescence ratio was 1.05.
Work on CCAAAGTTTA yielded a switch fluorescence ratio of 1.04.
With TTTGTTCGG the switch fluorescence ratio was 0.985.
CGGGTCCTTG gave a switch fluorescence ratio of 1.02.
In the case of GGCCTCTGAC, the switch fluorescence ratio is reported as 1.08.
AGTCCACGCT showed a switch fluorescence ratio of 1.04.
In the case of GCGCCGGGGT, the switch fluorescence ratio is reported as 0.988.
In the case of TCACTTATTG, the switch fluorescence ratio is reported as 0.967.
GCTCAAGGGA was tested, and the switch fluorescence ratio was 1.05.
For GGAGAGGTAA, the switch fluorescence ratio was 0.998.
TGGGCTTAAC showed a switch fluorescence ratio of 0.964.
AGAGTCCTAT was tested, and the switch fluorescence ratio was 1.
Work on TACGTGGCT yielded a switch fluorescence ratio of 0.973.
TAGGACGTT was tested, and the switch fluorescence ratio was 1.05.
For TCAAACCCCA, the switch fluorescence ratio was 1.06.
Work on AACTCTCCAT yielded a switch fluorescence ratio of 1.
Sequence GGGCTAATCT has a switch fluorescence ratio of 1.04.
ATAAATGCGA was tested, and the switch fluorescence ratio was 1.06.
AGGCCCGGCG was tested, and the switch fluorescence ratio was 1.03.
For AGGCTTTCGG, the switch fluorescence ratio was 0.999.
In the case of TCGAAACTCG, the switch fluorescence ratio is reported as 1.08.
In the case of TACGGTACCA, the switch fluorescence ratio is reported as 1.4.
Work on TACGCAACAG yielded a switch fluorescence ratio of 2.07.
Work on TTGCTGCT yielded a switch fluorescence ratio of 0.96.
CACCTCGATC showed a switch fluorescence ratio of 1.14.
Sequence CCATTCGTTG has a switch fluorescence ratio of 1.03.
In the case of GGGCATGAGG, the switch fluorescence ratio is reported as 0.992.
GTTAATAGTC was tested, and the switch fluorescence ratio was 1.1.
For GGGCTATACG, the switch fluorescence ratio was 1.07.
Work on TTCCGCCCAA yielded a switch fluorescence ratio of 3.3.
Work on ACAAGCTCCG yielded a switch fluorescence ratio of 0.972.
With CACTCAAGG the switch fluorescence ratio was 1.04.
TGGGGAATGC showed a switch fluorescence ratio of 1.27.
Sequence CTACCGGTGG has a switch fluorescence ratio of 1.
In the case of GAGAATCATT, the switch fluorescence ratio is reported as 0.999.
AAATGTCGGG gave a switch fluorescence ratio of 0.989.
AAAAATCCAA showed a switch fluorescence ratio of 1.02.
Work on CACATGAGTC yielded a switch fluorescence ratio of 1.03.
Work on GGAATCGGGA yielded a switch fluorescence ratio of 0.981.
Work on TGTACGGGAG yielded a switch fluorescence ratio of 0.997.
TGCAGAACAG showed a switch fluorescence ratio of 1.03.
ACTCTGAATG showed a switch fluorescence ratio of 1.08.
TTCTACAGTC was tested, and the switch fluorescence ratio was 0.95.
Sequence TTTTACAAGC has a switch fluorescence ratio of 1.02.
With GACTCCAGAT the switch fluorescence ratio was 1.22.
With AAGGAGTAGT the switch fluorescence ratio was 1.05.
For GGTAATCTGC, the switch fluorescence ratio was 0.968.
Sequence ACGAGGGAGT has a switch fluorescence ratio of 1.03.
ACGATTTGTC showed a switch fluorescence ratio of 0.958.
With CCATCGGGGG the switch fluorescence ratio was 1.
AGGCGTGGTA gave a switch fluorescence ratio of 1.07.
AAGTGGCGAA gave a switch fluorescence ratio of 1.01.
Work on TCACTGGATT yielded a switch fluorescence ratio of 1.02.
GGAATCTCTT was tested, and the switch fluorescence ratio was 0.977.
ATCACATATT gave a switch fluorescence ratio of 1.04.
For ACCCTGGGTC, the switch fluorescence ratio was 1.69.
ATGTAAAGTT showed a switch fluorescence ratio of 1.04.
Sequence CCTGTGCTGG has a switch fluorescence ratio of 1.31.
Sequence AGACCACCAC has a switch fluorescence ratio of 1.16.
Work on CGGTGTTATG yielded a switch fluorescence ratio of 1.01.
GGGTTTTTT was tested, and the switch fluorescence ratio was 0.947.
Work on TGGGGGTCG yielded a switch fluorescence ratio of 1.05.
AGACGGATC was tested, and the switch fluorescence ratio was 1.03.
Sequence TCAGGAAAA has a switch fluorescence ratio of 1.01.
Sequence CATAATACGA has a switch fluorescence ratio of 1.19.
In the case of TCTCAACGCG, the switch fluorescence ratio is reported as 1.02.
TTTGGTCGTT was tested, and the switch fluorescence ratio was 0.966.
TATCCTTATT gave a switch fluorescence ratio of 0.957.
GTAATTGTTC gave a switch fluorescence ratio of 0.939.
Work on GCCCTTAGTT yielded a switch fluorescence ratio of 0.994.
With GGGATCATTT the switch fluorescence ratio was 1.
Work on GGGGGTCGTA yielded a switch fluorescence ratio of 1.02.
For AATGATAGGA, the switch fluorescence ratio was 0.996.
CGAGAACGTT gave a switch fluorescence ratio of 0.993.
TGGAGTAAA gave a switch fluorescence ratio of 2.81.
In the case of TTACAAGCGG, the switch fluorescence ratio is reported as 1.02.
GGGTTCGTCG was tested, and the switch fluorescence ratio was 0.978.
With GTTTTCGTGC the switch fluorescence ratio was 0.987.
With TGAGACAACT the switch fluorescence ratio was 1.04.
CGTTTTATGA gave a switch fluorescence ratio of 0.99.
For GCTGGAGAGG, the switch fluorescence ratio was 1.06.
For CGTTCGTAAC, the switch fluorescence ratio was 1.4.
ATCCTATAGT showed a switch fluorescence ratio of 1.01.
GGTACTTATG gave a switch fluorescence ratio of 0.976.
Sequence TTTAATATG has a switch fluorescence ratio of 1.03.
With GATTGCGGCG the switch fluorescence ratio was 0.983.
CGAGGGTCAC showed a switch fluorescence ratio of 1.03.
With TACGGTGCCT the switch fluorescence ratio was 1.02.
For GTGTTCAAGA, the switch fluorescence ratio was 1.01.
AGAATCATGT gave a switch fluorescence ratio of 0.994.
GACAACGGGA was tested, and the switch fluorescence ratio was 1.09.
In the case of ATGAGGCTCG, the switch fluorescence ratio is reported as 0.951.
GCGCCAATTG showed a switch fluorescence ratio of 1.05.
For CGGGTAGTTC, the switch fluorescence ratio was 1.03.
Sequence GCATAAGGG has a switch fluorescence ratio of 1.05.
TTGATACGAG gave a switch fluorescence ratio of 1.04.
Work on CCTAAAGCT yielded a switch fluorescence ratio of 1.22.
TGCCAATCGC gave a switch fluorescence ratio of 1.11.
In the case of CTTATATTTG, the switch fluorescence ratio is reported as 0.996.
GGCAGAGGGG showed a switch fluorescence ratio of 0.984.
Work on GTTGCGGATT yielded a switch fluorescence ratio of 1.02.
TACGGGCAA gave a switch fluorescence ratio of 1.22.
With AGTGCGGGG the switch fluorescence ratio was 0.988.
Sequence CTCTATCCGG has a switch fluorescence ratio of 0.98.
Sequence TGAAATTAGC has a switch fluorescence ratio of 1.
GGTAGGGGAA was tested, and the switch fluorescence ratio was 0.981.
Sequence CTCTCCGCAA has a switch fluorescence ratio of 0.947.
TCTCACGAAA gave a switch fluorescence ratio of 1.19.
For CCGTCGTCGC, the switch fluorescence ratio was 0.965.
In the case of CGTAGCGGAT, the switch fluorescence ratio is reported as 1.23.
